From ChEMBL document CHEMBL4888484, “Replenishing the malaria drug discovery pipeline: Screening and hit evaluation of the MMV Hit Generation Library 1 (HGL1) against asexual blood stage Plasmodium falciparum ,using a nano luciferase reporter read-out” (2022) come the findings set out here.

SMILES strings stand for the structures. Screen size: about 150,000 compounds; about 540 (0.36%) showed an effect of 50% or more. The list shows a part of the results.

The test relates to Plasmodium falciparum. Put plainly: Primary screen in NF54 nanoGlo assay, in single point, at 2uM, 72h; a lower Z score goes with more inhibition. The test is classed as functional, Erythrocyte. The following applies: timepoint 72 hour.
Broadly, the % Inhibition is the drop in the measured response relative to a control, in per cent. As for `COC(=O)C1=C(C(=O)OC)SC(=C2C(=S)C(C)(C)N(C(=O)CN3C(=O)c4ccccc4C3=O)c3cc(C)c(C)cc32)S1`, the “% Inhibition” value came out at 1% and the Z score is -0.11.
Consider `Cn1ncc2c(N3CCCC3)nc(N3CCCCC3)nc21`, for which the “% Inhibition” value worked out at 4% and the Z score is -0.81.
As to `O=C(Cn1ccnc1[C@@H](O)c1cccs1)Nc1cccc(S(=O)(=O)N2CCCC2)c1`, the “% Inhibition” value is recorded as -15% and the Z score is listed as 2.79.
For `O[C@@H](CNCc1ccccc1F)COc1cccc2ccccc12`, in that order: -3% and 0.26.
For `OC1CCC(N[C@H](c2cccnc2)c2ccc(F)c(F)c2)CC1` (stereo partly drawn), in that order: -2% and 0.29.
With `Cc1c(C(=O)N2CCCC2)sc2ncnc(NCc3ccc4c(c3)OCO4)c12`, the “% Inhibition” value is reported as -8% and the Z score turned out to be 0.98.
For `COc1ccc(-c2cc(N(C)Cc3nnc(C4CCC4)n3C)n[nH]2)cc1`, in that order: -15% and 2.84.
For `Cc1nnc(N[C@H]2CCS(=O)(=O)C2)c(C#N)c1C`, in that order: 0% and 0.02.
For `CCc1c(C)noc1NC[C@]1(c2ccc(F)cc2)CCOC1`, in that order: 3% and -0.5.
`COc1ccc(F)c(CN2CCC[C@@]3(CCN(C(=O)c4ccco4)C3)C2=O)c1`: the “% Inhibition” value is listed as -13% and the Z score is 1.86.
For `Cc1ccccc1NC(=O)[C@H](C)n1nc(-c2ccccc2)c2c(c1=O)CCCC2`, in that order: -3% and 0.47.
In the case of `Cc1cccnc1CNC(=O)c1cc(NS(=O)(=O)N(C)C)cc2nc(CC(C)C)n(C)c12`, the “% Inhibition” value is -4% and the Z score was determined as 0.53.
For `Cc1cc(C)c(Br)c(C(=O)NCCc2nncn2C)c1`, the “% Inhibition” value is recorded as -14% and the Z score is 1.59.
For `c1nc(N2CCCC2)sc1CN1CCOC2(CCCC2)C1`, in that order: 0% and -0.08.
Regarding `Cc1cc(C(F)(F)F)ccc1CN[C@@]1(CO)CCOC1`, the “% Inhibition” value is listed as -5% and the Z score worked out at 0.95.
Regarding `CC(C)[C@@]1(CO)CCCN(c2ccnc(N(C)C)n2)C1`, the “% Inhibition” value is on record as 32% and the Z score is -3.68.
For `O=C(Cn1c(=O)n(Cc2cccc(Cl)c2)c(=O)c2ccccc21)Nc1ccc(F)c(Cl)c1`, the “% Inhibition” value stood at 28% and the Z score is on record as -3.22.
For `O=C(C1CCC1)N1CC[C@@]2(CCCN(Cc3cccc(F)c3F)C2=O)C1`, in that order: -11% and 1.01.
For `CC(O)CCCNC1[C@@H]2CCCN(C(=O)OC(C)(C)C)[C@@H]2C1(C)C` (stereo partly drawn), in that order: -7% and 1.4.
For `CC[C@H](NC(=O)Cc1nonc1C)c1nc(C)c(C)s1`, in that order: -8% and 0.82.
Regarding `CC[C@@H](C(=O)N1CCC(=C2CC2)CC1)c1ccccc1`, the “% Inhibition” value is given as -11% and the Z score came out at 1.32.
For `Cc1nnc(N[C@H]2CCN(c3ncc(C(F)(F)F)cc3Cl)C2)o1`, in that order: -9% and 1.62.
In the case of `N#CC1(NC(=O)COC(=O)c2cccc(-n3cnnn3)c2)CCCCC1`, the “% Inhibition” value is on record as 4% and the Z score is -0.72.
For `O=C(Nc1ncc(Cc2ccccc2)s1)N1CCC[C@H](OCCO)C1`, in that order: 4% and -0.79.
On to `Cn1nccc1C(=O)N1CCC[C@H]1c1cccs1`, for which the “% Inhibition” value was 2% and the Z score is reported as -0.35.
For `O=C(NCc1ccc(-c2nc(C3CC3)no2)s1)c1cccc(F)c1`, in that order: -7% and 1.25.
As to `COc1ccc(C(=O)C[n+]2cnn(CC(=O)c3ccc(C)cc3)c2)cc1`, the “% Inhibition” value is on record as -14% and the Z score is listed as 1.25.
Regarding `Cc1nccnc1CN1C[C@H](C)[C@@](O)(C(C)C)C1`, the “% Inhibition” value was -4% and the Z score amounted to 0.6.
For `CC1CCCC(OCc2nnc(-c3ccccc3)o2)C1` (stereo not drawn), in that order: -3% and 0.39.
Turning to `O=C(NCc1nnc2ccccn12)c1ccc2c(c1)CCCC2`, the “% Inhibition” value is on record as -12% and the Z score is on record as 2.25.
For `N[C@@H]1CCCN(C(=O)C2CCn3c(cnc3C3CCCCC3)C2)C1` (stereo partly drawn), in that order: -13% and 1.39.
For `COc1ccccc1CNC(=O)CN1C(=O)[C@@H]2CCCCN2C(=O)c2ccccc21`, in that order: -7% and 1.09.
For `C[C@@]1(C2CC2)COCCN1C(=O)c1cnc(-c2cccnc2)s1`, in that order: -10% and 1.67.
Regarding `CN(Cc1ccc2c(c1)OCO2)[C@@H](C(=O)O)c1ccsc1`, the “% Inhibition” value is reported as -1% and the Z score came out at 0.15.
Take `O=C(CN1CCN(S(=O)(=O)c2ccccc2F)CC1)NCC1(N2CCOCC2)CCCCC1`: the “% Inhibition” value is -30% and the Z score stood at 3.5.
Turning to `Cc1cnn([C@H]2CCCN(Cc3cccc4c3OCO4)C2)c1`, the “% Inhibition” value is reported as -18% and the Z score was 2.33.
For `CCc1ccc([C@@H]2CCCN2C(=O)NCc2cncn2C)o1`, in that order: -8% and 1.
For `COC(=O)c1cc(Cl)cc(NC(=O)CC2CCNCC2)c1`, in that order: 30% and -4.1.
For `Cc1cc(C(=O)N[C@@H](C)C2CC2)sc1C`, in that order: -2% and 0.42.
Consider `CCOc1ccc(C(=O)N2C3C=CCC2CC3)cc1OCC` (stereo not drawn), for which the “% Inhibition” value is -13% and the Z score was found to be 2.31.
For the compound `O=c1ccn(CCOc2cc(Cl)cc(Cl)c2)c(Cl)c1`, the “% Inhibition” value is -9% and the Z score is 1.88.
For `Cc1csc(NC(=O)c2ccc(OC[C@H]3CCCO3)nc2)n1`, the “% Inhibition” value was -20% and the Z score is 3.84.
On to `Cc1cc(C)nc(NCCC(=O)Nc2nccs2)n1`, for which the “% Inhibition” value was found to be 4% and the Z score is given as -0.65.
For `C[C@H](NC(=O)C1CCCC1)C(=O)N(C)Cc1ccsc1`, in that order: -11% and 1.12.
For `O=c1c2ccccc2c(-c2nc(-c3ccc(F)cc3)no2)nn1-c1ccccc1`, in that order: 27% and -3.12.
For `CC(C)c1n[nH]c([C@@H]2CN(Cc3nc4ccccc4n3C)CCO2)n1`, in that order: -13% and 1.98.
Turning to `COC1(OC)CCOC[C@@H]1CCNCc1c(F)cccc1F`, the “% Inhibition” value is given as -9% and the Z score is given as 1.78.
Regarding `CC1CCNC(C)C1NC(=O)Cc1ccc(O)cc1` (stereo not drawn), the “% Inhibition” value is -9% and the Z score worked out at 1.33.
`CC1(C)Cc2nc(N3CCOCC3)ncc2[C@@H](N)C1`: the “% Inhibition” value is listed as 2% and the Z score is listed as -0.29.
Turning to `N#Cc1cnc(N[C@H]2C[C@@H](O)C2)c(Cl)c1`, the “% Inhibition” value was 2% and the Z score is listed as -0.3.
For the compound `Cc1nc(N)nc(C)c1CC(=O)N1CCC[C@H]1c1nc(-c2ccccn2)no1`, the “% Inhibition” value was -16% and the Z score turned out to be 2.34.
For `CN(Cc1n[nH]c2c1CCCCC2)C(=O)c1nc(N)n[nH]1`, in that order: 13% and -2.17.
For `CCC1CC1NC(=O)NCC(C)(O)c1cnn(C)c1` (stereo not drawn), in that order: -4% and 0.36.
For `Cc1cc(N2CCN(c3ccccn3)CC2)n2cc(-c3ccccc3)nc2n1`, in that order: 42% and -5.35.
